Results taken from publication PMC4336329 (PLoS ONE, 2015).
Screen size: about 310,000 compounds; about 14,000 (4.5%) showed an effect of 50% or more. The effect is printed as a negative number. The list shows a part of the results.

molecular target: human ether-à-go-go-related gene (hERG) potassium channel (human, UniProt Q12809); test: primary screen, population patch clamp on CHO cells stably expressing hERG
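Further: peak tail current of the secondary pulse compared with the same well before compound.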

Chain of human ether-à-go-go-related gene (hERG) potassium channel (Q12809 whole entry, looked up): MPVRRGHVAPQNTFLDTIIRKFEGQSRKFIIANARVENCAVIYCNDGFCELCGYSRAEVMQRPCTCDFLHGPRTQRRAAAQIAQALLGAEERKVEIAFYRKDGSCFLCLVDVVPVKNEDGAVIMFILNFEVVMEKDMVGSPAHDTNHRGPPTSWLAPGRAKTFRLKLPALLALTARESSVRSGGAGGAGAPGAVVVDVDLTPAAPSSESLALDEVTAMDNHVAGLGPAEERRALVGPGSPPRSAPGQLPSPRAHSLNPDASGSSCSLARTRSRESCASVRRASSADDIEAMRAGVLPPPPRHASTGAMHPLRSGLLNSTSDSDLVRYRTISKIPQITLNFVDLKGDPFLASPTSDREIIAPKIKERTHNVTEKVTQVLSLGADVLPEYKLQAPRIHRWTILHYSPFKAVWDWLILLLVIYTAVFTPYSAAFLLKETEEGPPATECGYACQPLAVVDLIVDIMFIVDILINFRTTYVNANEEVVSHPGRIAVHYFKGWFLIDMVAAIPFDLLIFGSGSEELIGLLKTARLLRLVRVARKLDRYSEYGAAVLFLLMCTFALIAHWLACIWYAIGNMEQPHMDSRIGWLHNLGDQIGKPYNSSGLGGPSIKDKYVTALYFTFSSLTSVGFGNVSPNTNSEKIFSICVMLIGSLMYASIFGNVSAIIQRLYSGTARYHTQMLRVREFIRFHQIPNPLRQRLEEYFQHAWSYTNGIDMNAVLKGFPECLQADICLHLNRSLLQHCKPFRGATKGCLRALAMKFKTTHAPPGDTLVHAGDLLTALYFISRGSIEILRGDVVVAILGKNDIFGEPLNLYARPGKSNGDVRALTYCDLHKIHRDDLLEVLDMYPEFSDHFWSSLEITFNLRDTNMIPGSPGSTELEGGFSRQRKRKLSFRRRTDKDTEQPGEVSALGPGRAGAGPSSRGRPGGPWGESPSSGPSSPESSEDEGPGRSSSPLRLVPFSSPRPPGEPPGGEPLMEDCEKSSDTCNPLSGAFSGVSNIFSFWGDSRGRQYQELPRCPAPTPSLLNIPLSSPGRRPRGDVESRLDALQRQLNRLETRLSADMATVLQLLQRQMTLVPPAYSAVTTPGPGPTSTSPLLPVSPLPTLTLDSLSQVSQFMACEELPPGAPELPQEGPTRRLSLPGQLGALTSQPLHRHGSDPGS

SMILES | hERG current change (%, negative = inhibition) at 10uM
CCCCn1c(N)c(N(CCOC)C(=O)C2CCN(S(=O)(=O)c3ccccc3)CC2)c(=O)[nH]c1=O | -3.64%
NC(=O)C1CCCN(C(=O)c2ccc(NC(=O)c3cccs3)cc2)C1 (centres unmarked) | 2.82%
COc1ccc(-c2c(C)nn3c(N4CCN(Cc5ccccc5)CC4)cc(C)nc23)cc1OC | 9.35%
COc1ccccc1/C=C/C(=O)NC(=S)N1CCOCC1 | 15.9%
CCn1nnc(NC(=O)c2cc3ccccc3o2)n1 | 4.36%
OCC[C@@H]1C[C@@H](O)[C@H](O)[C@@]2(Cc3ccccc3CCO2)O1 | 11%
CCCCC(=O)Nc1ccc(N2CCCC2)cc1 | -3.21%
Cc1[nH]c2ccccc2c1C(c1ccncc1)N1CCN(c2ccc(F)cc2)CC1 (centres unmarked) | 6.47%
Cn1c(=O)n(C)c2cc(NS(=O)(=O)c3ccc(Br)s3)ccc21 | -3.63%
C/C(Cc1ccccc1)=N\NC(=O)C1CCCCC1 | 12.5%
CCOC(=O)C1=C(C)N(CCCC(=O)O)C(=O)NC1c1ccccc1OS(=O)(=O)c1ccccc1[N+](=O)[O-] (centres unmarked) | 16.8%
Cc1cccc(C(=O)O[C@@H]2[C@H](Cc3ccccc3)NS(=O)(=O)[C@H]3C[C@@H]4C=C[C@]23O4)c1 | 6.14%
O=C(O)Cc1ccc(NS(=O)(=O)c2ccccc2Br)cc1 | 15.8%
COc1cc(/C=N/NC(N)=S)ccc1OCc1ccc(C)cc1 | -10.1%
CC(C)n1cc(/C=N/Nc2ccc(Cl)c(C(=O)O)c2)c2ccccc21 | 14.7%
O=C(CSc1nncc2ccccc12)Nc1ccccc1 | -15.1%
CC(C)CN(C(=O)COC(=O)c1ccc(Br)cc1)c1c(N)n(Cc2ccccc2)c(=O)[nH]c1=O | -2.83%
CC(=O)N1CCN(c2ccc(NC(=O)c3cccc(Cl)c3)cc2)CC1 | -7.02%
Cc1cccc(NC(=S)NC2CCCC2)c1C | 7.79%
N=C(N)Cc1ccccc1Sc1ccccc1.O=C(O)/C=C\C(=O)O | -1.09%
CCOC(=O)c1c2n(c3ccc(O)cc13)CCC2 | 21.1%
Cc1ccc(C)c(-c2csc(NC(=O)C3=COCCO3)n2)c1 | -19.2%

SMILES | hERG current change (%, negative = inhibition) at 10uM
CCOC(=O)C(CCCCCOc1ccccc1[N+](=O)[O-])C(=O)OCC | -8.54%
COc1cc(Br)c(-c2sc(Nc3ccccc3)n[n+]2-c2ccc(F)cc2)cc1OC.[Cl-] | -37.1%
Cc1cc(=O)[nH]c(=S)[nH]1 | 14.9%
COc1ccc(C(=O)NCC(=O)N/N=C/c2ccc([N+](=O)[O-])o2)cc1OC | -44.3%
CC(C)c1cc(C(N)=O)c(NC(=O)c2cccc(COc3ccc(Cl)cc3)c2)s1 | 3.76%
COc1ccc(/C=C2/SC(=O)N(CCNC(=O)CC(NC(C)=O)c3ccccc3)C2=O)cc1 (centres unmarked) | -3.85%
OCCN(CCO)Cc1ccc(Br)cc1 | -3.79%
Br.Cc1ccccc1Cn1ccc(=NCc2ccccc2)cc1 | -3.72%
O=C(CSc1ccccn1)Nc1ccc(Br)cn1 | -4.31%
CCCNC(=O)c1cccc(C(F)(F)F)c1 | 7.54%
O=C(c1ccc(S(=O)(=O)Nc2ccccc2)cc1)N1CCCC(C(F)(F)F)C1 (centres unmarked) | -3.39%
CCOCCCNC(=O)c1ccc(OC)cc1 | 24.1%
COc1ccc(NC(=O)CCC(=O)N/N=C/c2cn(C)nc2C)cc1 | 11.8%
O=C(O)CNC(=O)c1ccc(Oc2c(F)c(F)c(Oc3ccc(C(=O)NCC(=O)O)cc3)c(F)c2F)cc1 | -1.38%
Cc1ccc(/C=N/NC(=O)c2ccc(-n3cnnn3)cc2)cc1 | 13.8%
COc1cccc(N(C(=O)c2snc(C(N)=O)c2N)C(C(=O)NCC2CCCO2)c2c[nH]c3ccccc23)c1 (centres unmarked) | -10.7%
c1ccc(-c2csc(N3CCSCC3)n2)cc1 | 4.17%
CC(c1ccccn1)N(CCN(C)C)C(=S)Nc1ccccc1F (centres unmarked) | -18.4%
CCOC(=O)N1CCN(S(=O)(=O)c2cc(OCC(=O)NC3CCCCC3)c(C)cc2Cl)CC1 | -24.7%
O=[N+]([O-])c1ccc(O)c2cccnc12 | 9.81%
CN(Cc1ccccc1)C(=O)COc1ccc(-c2nnco2)cc1 | 8.85%
COc1ccc(C(=O)Nc2nnc(SCC(=O)NCC3CCCO3)s2)cc1OC (centres unmarked) | 21.4%
